The values that follow come from article PMC5892938.

The list shows a part of the results. At the low end of the ranking the order means little.

In this assay the target is GST-SBP-SLBP (stem-loop binding protein) (UniProt Q14493). The assay can be described thus: targeted RNA Bind-n-Seq.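 Also: DESeq read counts versus GST-SBP nonspecific binding control pulldown.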 The following applies: RBNS binding buffer: 25 mM Tris pH 7.5, 150 mM KCl, 3 mM MgCl2, 0.1% Tween, 0.5 mg/mL BSA, 1 mM DTT; 27 nM protein, 750 pM RNA pool; temperature not stated; high values mean tight binding.
In the case of “GGUCACGUCUCAAUCAACUCUUAAGAGGGGGGGAAAACCCCUUUACCCUCACAUUCAACAGCUCGCAGUCAAG”, the binding signal (log2 fold change) is -0.484.

Turning to “GGUCACGUCUCAAUCAACUCUUCCCCCAGGGAAACCCCUGGUUAACUCAACAGCUCGCAGUCAAG”, the binding signal (log2 fold change) came out at 0.0949.

Turning to “GGUCACGUCUCAAUCAACUCAAUCCCAGGAGUUUACUCCUGCUAAUUCAACAGCUCGCAGUCAAG”, the binding signal (log2 fold change) was found to be 0.125.

In the case of “GGUCACGUCUCAAUCAACUCUUCUCCCAGGGAAAACCCUGGUUUUUUCAACAGCUCGCAGUCAAG”, the binding signal (log2 fold change) is -0.281.

“GGUCACGUCUCAAUCAACUCUAGUCCCAGGGAAAACCCUGGCAAUCUCAACAGCUCGCAGUCAAG”: the binding signal (log2 fold change) was 0.00929.

Regarding “GGUCACGUCUCAAUCAACUCCCCUGAGGGGGGGAAAACCCCUUUACCCUCUAAAUCAACAGCUCGCAGUCAAG”, the binding signal (log2 fold change) was -0.157.

With “GGUCACGUCUCAAUCAACUCAUAAGAGGGGGGGAAAACCCCUUUACCCUCCUAAUCAACAGCUCGCAGUCAAG”, the binding signal (log2 fold change) came to 0.12.

Regarding “GGUCACGUCUCAAUCAACUCUUUCUCCAGGGAAAGCCCUGGUAAUUUCAACAGCUCGCAGUCAAG”, the binding signal (log2 fold change) came out at 0.0225.

As for “GGUCACGUCUCAAUCAACUCAAUAGAGGGGGGGAAAACCCCUUUACCCUCCAAUUCAACAGCUCGCAGUCAAG”, the binding signal (log2 fold change) amounted to 0.12.

Regarding “GGUCACGUCUCAAUCAACUCAUUCCCAGGAGUUUACUCCUGCUAUCUCAACAGCUCGCAGUCAAG”, the binding signal (log2 fold change) is -0.0401.

Regarding “GGUCACGUCUCAAUCAACUCAUUAGAGGGGGGGAAAACCCCUUUACCCUCAUUCUCAACAGCUCGCAGUCAAG”, the binding signal (log2 fold change) came to 0.259.

With “GGUCACGUCUCAAUCAACUCUAUCUCCAGGGAAAGCCCUGGCUAACUCAACAGCUCGCAGUCAAG”, the binding signal (log2 fold change) amounted to 0.0627.

For “GGUCACGUCUCAAUCAACUCAGUUUCCAGGGAAACCCCUGGCUUAUUCAACAGCUCGCAGUCAAG”, the binding signal (log2 fold change) was -0.0969.

“GGUCACGUCUCAAUCAACUCAUCGCCAGGAGUUUUCUCCUGUAAAUUCAACAGCUCGCAGUCAAG”: the binding signal (log2 fold change) was -0.000177.

With “GGUCACGUCUCAAUCAACUCAUUCUCAGGAGUUUCCUCCUGCUUUGUCAACAGCUCGCAGUCAAG”, the binding signal (log2 fold change) amounted to 0.0657.

Regarding “GGUCACGUCUCAAUCAACUCCUAAGAGGGGGGGAAAACCCCUUUGCCCUCGUAUUCAACAGCUCGCAGUCAAG”, the binding signal (log2 fold change) is -0.0592.

On to “GGUCACGUCUCAAUCAACUCAUUCUCCAGGGAAACCCCUGGUUUAUUCAACAGCUCGCAGUCAAG”, for which the binding signal (log2 fold change) is -0.11.

Regarding “GGUCACGUCUCAAUCAACUCCAAAGAGGGGGGGAAAACCCCUUUACCCUCACAAUCAACAGCUCGCAGUCAAG”, the binding signal (log2 fold change) is -0.515.

Consider “GGUCACGUCUCAAUCAACUCAGUUUCAGGAGUUUACUCCUGCUUUUUCAACAGCUCGCAGUCAAG”, for which the binding signal (log2 fold change) was -0.226.

On to “GGUCACGUCUCAAUCAACUCAUUUUCCAGGGAAAACCCUGGCAAUUUCAACAGCUCGCAGUCAAG”, for which the binding signal (log2 fold change) was -0.0381.

Turning to “GGUCACGUCUCAAUCAACUCUUUCUCCAGGGAAAGCCCUGGUAUUCUCAACAGCUCGCAGUCAAG”, the binding signal (log2 fold change) is -0.0417.

Regarding “GGUCACGUCUCAAUCAACUCCAAAGAGGGGGGGAAAACCCCUUUACCCUCCACUUCAACAGCUCGCAGUCAAG”, the binding signal (log2 fold change) was -0.445.

Regarding “GGUCACGUCUCAAUCAACUCUAUUUCCAGGGAAAACCCUGGCUUUUUCAACAGCUCGCAGUCAAG”, the binding signal (log2 fold change) is -0.0771.

In the case of “GGUCACGUCUCAAUCAACUCAUUUUCAGGAGUUUACUCCUGCUUUCUCAACAGCUCGCAGUCAAG”, the binding signal (log2 fold change) was 0.119.

“GGUCACGUCUCAAUCAACUCAUCCUCAGGAGUUUUCUCCUGCUUAUUCAACAGCUCGCAGUCAAG”: the binding signal (log2 fold change) was determined as 0.0348.

Turning to “GGUCACGUCUCAAUCAACUCAUUUUCCAGGGAAACCCCUGGCAUUUUCAACAGCUCGCAGUCAAG”, the binding signal (log2 fold change) is -0.139.

For “GGUCACGUCUCAAUCAACUCUUUCCCAGGAGUUUUCUCCUGUUUAUUCAACAGCUCGCAGUCAAG”, the binding signal (log2 fold change) came out at 0.00119.

Regarding “GGUCACGUCUCAAUCAACUCUAUCUCCAGGGAAAUCCCUGGCUAUCUCAACAGCUCGCAGUCAAG”, the binding signal (log2 fold change) was -0.0333.

With “GGUCACGUCUCAAUCAACUCUUCCCCCAGGGAAACCCCUGGUAAUUUCAACAGCUCGCAGUCAAG”, the binding signal (log2 fold change) is -0.0954.

Turning to “GGUCACGUCUCAAUCAACUCUAGUCCCAGGGAAAACCCUGGUAAUUUCAACAGCUCGCAGUCAAG”, the binding signal (log2 fold change) was -0.0556.

Take “GGUCACGUCUCAAUCAACUCAAAAGAGGGGGGGAAAACCCCUUUACCCUCAUAUUCAACAGCUCGCAGUCAAG”: the binding signal (log2 fold change) was determined as 0.449.

In the case of “GGUCACGUCUCAAUCAACUCAAUCUCAGGAGUUUCCUCCUGUUAAUUCAACAGCUCGCAGUCAAG”, the binding signal (log2 fold change) is -0.0624.

Turning to “GGUCACGUCUCAAUCAACUCUAUCCCAGGAGUUUCCUCCUGUAUUCUCAACAGCUCGCAGUCAAG”, the binding signal (log2 fold change) stood at 0.159.

“GGUCACGUCUCAAUCAACUCUUUCUCCAGGGAAAGCCCUGGUUAUUUCAACAGCUCGCAGUCAAG”: the binding signal (log2 fold change) is -0.0896.

For “GGUCACGUCUCAAUCAACUCUUCUCCCAGGGAAAUCCCUGGCUUUCUCAACAGCUCGCAGUCAAG”, the binding signal (log2 fold change) was 0.0813.

For the sequence “GGUCACGUCUCAAUCAACUCAUUUUCAGGAGUUUUCUCCUGUAUACUCAACAGCUCGCAGUCAAG”, the binding signal (log2 fold change) is -0.00998.

In the case of “GGUCACGUCUCAAUCAACUCUAGUCCAGGAGUUUCCUCCUGUUUUUUCAACAGCUCGCAGUCAAG”, the binding signal (log2 fold change) was -0.159.

“GGUCACGUCUCAAUCAACUCAUCUCCCAGGGAAAACCCUGGUUAAUUCAACAGCUCGCAGUCAAG”: the binding signal (log2 fold change) is -0.0315.

Turning to “GGUCACGUCUCAAUCAACUCAUCCCCCAGGGAAAACCCUGGUUAUUUCAACAGCUCGCAGUCAAG”, the binding signal (log2 fold change) is -0.183.

Consider “GGUCACGUCUCAAUCAACUCAUCGCCAGGAGUUUUCUCCUGCUUUCUCAACAGCUCGCAGUCAAG”, for which the binding signal (log2 fold change) worked out at 0.12.

For the sequence “GGUCACGUCUCAAUCAACUCUUUUUCAGGAGUUUCCUCCUGCAUUUUCAACAGCUCGCAGUCAAG”, the binding signal (log2 fold change) was -0.0817.

As to “GGUCACGUCUCAAUCAACUCUACUUCAGGAGUUUCCUCCUGCUUUCUCAACAGCUCGCAGUCAAG”, the binding signal (log2 fold change) is -0.0662.

Regarding “GGUCACGUCUCAAUCAACUCAACUUCCAGGGAAAGCCCUGGUUUUUUCAACAGCUCGCAGUCAAG”, the binding signal (log2 fold change) is -0.0931.

For “GGUCACGUCUCAAUCAACUCUCCUGAGGGGGGGAAAACCCCUUUACCCUCUUUAUCAACAGCUCGCAGUCAAG”, the binding signal (log2 fold change) was -0.172.

Regarding “GGUCACGUCUCAAUCAACUCAUUCUCCAGGGAAAGCCCUGGCAAUCUCAACAGCUCGCAGUCAAG”, the binding signal (log2 fold change) stood at 0.00165.

In the case of “GGUCACGUCUCAAUCAACUCUAUUCCCAGGGAAAUCCCUGGCUUACUCAACAGCUCGCAGUCAAG”, the binding signal (log2 fold change) is 0.0785.

With “GGUCACGUCUCAAUCAACUCAUCGUCAGGAGUUUACUCCUGUAUACUCAACAGCUCGCAGUCAAG”, the binding signal (log2 fold change) turned out to be 0.13.
